The record followed here is paper PMC4336329 (PLoS ONE, 2015).

Among all 310,000 compounds or so, about 2,200 (0.71%) showed an effect of 50% or more. The effect is printed as a negative number. Some of the results follow.

Chain of human ether-à-go-go-related gene (hERG) potassium channel (Q12809 whole entry, looked up): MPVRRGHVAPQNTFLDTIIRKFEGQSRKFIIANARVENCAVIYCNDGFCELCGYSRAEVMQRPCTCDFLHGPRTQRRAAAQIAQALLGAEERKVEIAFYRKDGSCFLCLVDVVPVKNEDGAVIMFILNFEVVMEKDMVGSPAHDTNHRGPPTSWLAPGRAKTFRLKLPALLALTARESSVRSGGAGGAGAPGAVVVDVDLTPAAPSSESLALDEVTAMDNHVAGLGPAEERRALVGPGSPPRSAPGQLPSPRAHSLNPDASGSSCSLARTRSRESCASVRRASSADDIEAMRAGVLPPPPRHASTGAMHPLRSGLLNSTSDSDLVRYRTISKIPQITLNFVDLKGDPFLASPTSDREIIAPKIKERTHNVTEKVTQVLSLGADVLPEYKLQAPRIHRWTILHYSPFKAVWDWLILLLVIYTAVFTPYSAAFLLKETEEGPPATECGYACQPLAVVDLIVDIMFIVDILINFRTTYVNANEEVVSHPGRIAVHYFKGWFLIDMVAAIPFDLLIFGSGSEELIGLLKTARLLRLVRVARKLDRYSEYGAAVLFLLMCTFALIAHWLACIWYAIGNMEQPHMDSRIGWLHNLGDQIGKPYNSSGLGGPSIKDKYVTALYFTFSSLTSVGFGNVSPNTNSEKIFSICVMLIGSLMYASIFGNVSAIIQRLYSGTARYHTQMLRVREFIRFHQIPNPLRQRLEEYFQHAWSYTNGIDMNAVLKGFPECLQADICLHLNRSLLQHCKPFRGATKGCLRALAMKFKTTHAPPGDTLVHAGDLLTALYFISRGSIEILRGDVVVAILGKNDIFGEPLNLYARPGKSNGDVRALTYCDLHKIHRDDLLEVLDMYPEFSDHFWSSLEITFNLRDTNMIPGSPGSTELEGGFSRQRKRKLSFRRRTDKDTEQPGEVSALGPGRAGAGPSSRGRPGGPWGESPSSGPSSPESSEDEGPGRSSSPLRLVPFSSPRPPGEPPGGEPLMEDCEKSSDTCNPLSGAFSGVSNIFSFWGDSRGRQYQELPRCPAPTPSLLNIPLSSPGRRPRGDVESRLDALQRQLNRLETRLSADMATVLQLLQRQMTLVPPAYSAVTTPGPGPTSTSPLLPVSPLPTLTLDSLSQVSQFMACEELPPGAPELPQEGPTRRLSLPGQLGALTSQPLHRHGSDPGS

The test addresses human ether-à-go-go-related gene (hERG) potassium channel (human, UniProt Q12809). Kind of test: primary screen, population patch clamp on CHO cells stably expressing hERG.
As to `O=C(CCN1C(=O)/C(=C\c2cccc(Br)c2)SC1=S)NCCCN1CCOCC1`, the “hERG current change (%, negative = inhibition) at 1uM” value was 2.23%.
Turning to `O=C(Nc1ncc(C(F)(F)F)cc1Cl)c1ccc(S(=O)(=O)N2CCOCC2)cc1`, the “hERG current change (%, negative = inhibition) at 1uM” value is reported as -1.57%.
For `CCOc1ccc(CN(C)C(=O)CCNC(=O)c2ccco2)cc1`, the “hERG current change (%, negative = inhibition) at 1uM” value amounted to 6.75%.
Take `Cc1nc2cc3c(cc2c(C)c1C(=O)OC(C)C)OCO3.Cl`: the “hERG current change (%, negative = inhibition) at 1uM” value was determined as 4.54%.
`CC(C(=O)N1CCc2ccccc21)N(C)CC(=O)Nc1ccc(F)cc1` (centres unmarked): the “hERG current change (%, negative = inhibition) at 1uM” value is given as -3.18%.
The same measure for `COC(=O)N1CCN(c2ccc(C(C)=O)cc2)CC1`: -6.57%; for `CCOc1ccccc1C(=O)Nc1ccc(S(=O)(=O)N2CCN(C)CC2)cc1`: 13.8%; for `COc1ccc(C2=NN(CCC(=O)NCc3cccs3)C(=O)CC2)cc1`: -3.86%.
Turning to `O=C(NCc1ccco1)c1ccc2nc3sc4c(c3c(=O)n2c1)CCCC4`, the “hERG current change (%, negative = inhibition) at 1uM” value worked out at 8.21%.
With `COc1ccccc1N1CCN(C(=O)Cn2ncc3c([nH]c4ccccc43)c2=O)CC1`, the “hERG current change (%, negative = inhibition) at 1uM” value is 5.56%.
Then `CC1=C(C(=O)N(C)C)C(c2ccc(C)s2)NC(=S)N1` (centres unmarked), with 11.6%; and `CCOc1ccc(/C=N/NC(=O)CNC(=O)c2ccc(S(=O)(=O)N3CCOCC3)cc2)cc1`, with 14.4%.
The same measure for `CCn1cc(C(=O)NC(C)C23CC4CC(CC(C4)C2)C3)cn1` (centres unmarked): 4.6%.
Then `c1csc(-c2nnc(N3CCOCC3)c3ccccc23)c1`, with 6.88%.
`Cc1nc2ccccc2n1CCC(=O)Nc1cccc(F)c1`: the “hERG current change (%, negative = inhibition) at 1uM” value was determined as 12.4%.
Regarding `COC(=O)c1[nH]c2ccc(Br)cc2c1NC(=O)CN1CCCCC1CCO` (centres unmarked), the “hERG current change (%, negative = inhibition) at 1uM” value is on record as 5.4%.
With `Cc1cc(=O)oc2cc(NC(=O)c3cc(F)ccc3F)ccc12`, the “hERG current change (%, negative = inhibition) at 1uM” value is on record as 12.4%.
The same measure for `C=CCOCCn1[nH]c2ccccc2c1=O`: 8.64%.
In the case of `O=C(Cn1cc([N+](=O)[O-])cn1)N1CCc2ccccc21`, the “hERG current change (%, negative = inhibition) at 1uM” value was found to be 7.32%.
Turning to `COC(=O)c1ccc(N2CCN(c3ccccc3)CC2)c(NC(=O)C2CC2)c1`, the “hERG current change (%, negative = inhibition) at 1uM” value was -20.7%.
Take `CCN1CCN(c2ncc(C(=O)Nc3cc(Cl)ccc3OC)c3ccccc23)CC1`: the “hERG current change (%, negative = inhibition) at 1uM” value is on record as -4.26%.
`Cc1ccc(OCCCN2CCOCC2)c([N+](=O)[O-])c1.O=C(O)C(=O)O`: the “hERG current change (%, negative = inhibition) at 1uM” value stood at 0.484%.
On to `CC(C)CN1CCN(Cc2cccc3c2OCO3)CC1CCO` (centres unmarked), for which the “hERG current change (%, negative = inhibition) at 1uM” value is 8.37%.
In the case of `Cc1cc2ncn(S(=O)(=O)N3CCCCC3)c2cc1C`, the “hERG current change (%, negative = inhibition) at 1uM” value worked out at 11.6%.
Turning to `N#CC1=C(N)N2C(=C(C#N)C1c1ccc(Br)cc1)Nc1ccccc12` (centres unmarked), the “hERG current change (%, negative = inhibition) at 1uM” value came out at 5.45%.
On to `COc1cc(CC(=O)Nc2cccc(SC)c2)cc(OC)c1OC`, for which the “hERG current change (%, negative = inhibition) at 1uM” value is 42.1%.
Turning to `Cl.Nc1nc(N2CCCCC2)nc2ccccc12`, the “hERG current change (%, negative = inhibition) at 1uM” value is -15.9%.
Then `CN1CCCC(OC(=O)c2ccc(C#N)cc2)C1.Cl` (centres unmarked), with 12.2%.
Turning to `COc1ccc(-n2ccc(=O)c3c2CCCC3=O)cc1`, the “hERG current change (%, negative = inhibition) at 1uM” value was 11.2%.
Then `C=CCn1c(SC(C)C(=O)NCCC2=CCCCC2)nc2ccccc2c1=O` (centres unmarked), with -13.7%; and `Cc1cccc(N(C)S(=O)(=O)c2c(C)[nH]c(C)c2C(=O)N2CCCC2)c1`, with 7.4%; and `O=C(CCNC(=O)OCc1ccccc1)NC1CCCCCC1`, with 15.3%.
The same measure for `COc1ccc(NS(=O)(=O)c2ccc(SC)cc2)c(OC)c1`: 2.38%; for `Cc1ccc(NC(=O)c2cnn(-c3ccccc3)c2NC(=O)c2ccco2)cc1`: 5.77%; for `O=C1c2cccc3cccc(c23)C(=O)N1CCCN1CCN(c2ccc(F)cc2)CC1`: -26.5%.
The same measure for `Cc1ccc(O)c(-c2cc(C(=O)Nc3ccc(S(=O)(=O)Nc4nc(C)cc(C)n4)cc3)[nH]n2)c1`: -2.13%.
As for `CCOC(=O)c1ccc(-c2ccc(/C=N/NC(=O)CN(c3cccc(C)c3)S(C)(=O)=O)o2)cc1`, the “hERG current change (%, negative = inhibition) at 1uM” value was found to be 7.87%.
For the molecule `CNc1snc(C)c1C(=O)OCC(=O)c1ccc(OC)c(F)c1`, the “hERG current change (%, negative = inhibition) at 1uM” value is recorded as 6.59%.
The same measure for `Cc1ccc2c(CC(=O)OC(C)C(=O)NCc3ccc4c(c3)OCO4)coc2c1` (centres unmarked): 21.7%; for `O=C1N(Cc2cccc(Cl)c2)C[C@@H]2C[C@@H](c3ccco3)N3CCC[C@@]123`: 2.89%.
Then `CN1CCC(N(C)CC(=O)Nc2ccc3c(c2)OC(F)(F)O3)CC1.O=C(O)C(=O)O`, with 4.53%; and `Cc1onc(-c2ccccc2Cl)c1C(=O)NCc1ccc(F)cc1`, with 13.6%.
Then `COc1ccc(Cl)cc1Nc1nc2ccc(C)cc2n2cnnc12`, with 21.4%; and `Cc1cc2oc(=O)cc(CN(C)Cc3ccc(OC(F)F)cc3)c2cc1Cl`, with 13.8%.
Regarding `Clc1ccc(OCc2nc(-c3ccncc3)no2)cc1`, the “hERG current change (%, negative = inhibition) at 1uM” value was found to be 7.49%.
On to `CCOc1ccc2nc(SC3CC(=O)N(c4cccc(OC)c4)C3=O)sc2c1` (centres unmarked), for which the “hERG current change (%, negative = inhibition) at 1uM” value is 17.4%.
With `COc1ccc(-n2c(Cc3cccc([N+](=O)[O-])c3)nc3ccccc3c2=O)cc1`, the “hERG current change (%, negative = inhibition) at 1uM” value was -8.06%.
Then `c1ccc(CN2OCC3Cn4c(nc5ccccc54)C32)cc1` (centres unmarked), with 18.9%; and `CSCCC(NC(=O)c1ccccc1Cl)C(=O)N1CCN(c2ccccn2)CC1` (centres unmarked), with -8.83%; and `O=C(NNc1ccc(Cl)nn1)c1ccc(Cl)cc1`, with 1.83%.
Then `O=S(=O)(Nc1ncn[nH]1)c1ccc2ccccc2c1`, with 6.92%.
Consider `COCCNC(=O)CSc1ccccc1C(=O)NCC1CCCCC1`, for which the “hERG current change (%, negative = inhibition) at 1uM” value stood at 8.03%.
For `O=C(COc1ccccc1)Nc1nnc(S(=O)(=O)N2CCCC2)s1`, the “hERG current change (%, negative = inhibition) at 1uM” value was determined as 12.5%.
The same measure for `N#C/C(=C\c1ccc(Cl)cc1)c1nc2ccccc2o1`: 1.79%; for `Cc1cnc(C(=O)OCC(=O)Nc2ccc(C)c(S(=O)(=O)N3CCCCCC3)c2)cn1`: 7.47%; for `CCOC(=O)CSc1nc2c(cnn2-c2ccc(C)cc2)c(=O)[nH]1`: 8.51%.
Then `Cc1ccccc1C(N)c1ccncc1.Cl` (centres unmarked), with 11.3%.
Then `COc1ccccc1CNC(=O)/C=C/c1ccc(Br)o1`, with -7.25%.
`CC(C)(C)NC(=O)CN(C(=O)CNS(=O)(=O)c1ccccc1)c1ccc2c(c1)OCCO2`: the “hERG current change (%, negative = inhibition) at 1uM” value came to 11.3%.
Then `CCCc1cc(=O)[nH]c(SCC(=O)NC2CCCCC2)n1`, with 13.7%; and `O=C(CCc1nc2ccccc2c(=O)[nH]1)OCC(=O)c1ccc(C2CCCCC2)cc1`, with -1.64%.
Then `Cc1ccc(C(=O)OCCN(C)Cc2ccccc2)cc1.Cl`, with -17.1%; and `COc1ccc(CC(=O)NCc2cn3ccsc3n2)cc1`, with 12.3%; and `Cc1ccc(C2=[N+]([O-])C(C)(C)N(O)C2(C)C)cc1`, with 16.8%.
On to `COc1ccc(-c2c(N)nnc3c2[nH]c2ccccc23)cc1OC.Cl`, for which the “hERG current change (%, negative = inhibition) at 1uM” value stood at 4.85%.
Then `CCCC(C)n1[nH]c(=O)c2c(C)cc(C)nc21` (centres unmarked), with 6.36%; and `CCOC(=O)c1[nH]cnc1C(=O)NC1CCCCC1`, with 19.2%; and `CN(C)CC(C)(C)CNS(=O)(=O)c1cccc2nsnc12`, with -2.43%.
Then `COc1ccc(-c2nc(NCCCN(C)C)c3ccccc3n2)cc1.Cl`, with 3.72%.
The same measure for `Cc1ccccc1N(CC(=O)NC1CCCCC1)C(=O)CNC(=O)c1cccs1`: -17.3%; for `COC(=O)COc1cc(C)cc2oc(=O)c(CC(=O)OC)c(C)c12`: 5.08%.
`CCOCCCNC(=O)C1CCCN(S(=O)(=O)CC)C1` (centres unmarked): the “hERG current change (%, negative = inhibition) at 1uM” value was 1.94%.
The same measure for `COc1cc(C(=O)Nc2cccc(S(=O)(=O)N3CCCC3)c2)cc(OC)c1C`: 13.5%; for `CCOc1cc(NC(=O)c2ccccn2)c(OCC)cc1NC(=O)c1ccc(OC)cc1`: 3.95%.
As for `O=C(c1ccc([N+](=O)[O-])cc1[N+](=O)[O-])N1CCN(C(=O)C2CCCO2)CC1` (centres unmarked), the “hERG current change (%, negative = inhibition) at 1uM” value is 7.49%.
For the molecule `Cc1cnc(NC(=O)CC(C)c2ccccc2)s1` (centres unmarked), the “hERG current change (%, negative = inhibition) at 1uM” value stood at 9.29%.
Then `Cc1ccc(NC(=S)NNC(=O)Nc2ccccc2)cc1`, with 23.6%.
Then `COc1ccc(CCNC(=O)c2cc3c(=O)n4ccccc4nc3n(CCCN3CCOCC3)c2=N)cc1`, with -88.9%; and `COc1cc(C)c(NC(=S)Nc2cccc(Cl)c2)cc1OC`, with 16.8%.
On to `COc1ccc(C)cc1NC(=O)C(Sc1nnc(-c2ccncc2)n1-c1ccc(Cl)cc1)c1ccccc1` (centres unmarked), for which the “hERG current change (%, negative = inhibition) at 1uM” value was 18.1%.
Then `CN(C)S(=O)(=O)N1CCN(CC(O)COc2ccc3cc(Br)ccc3c2)CC1` (centres unmarked), with 4.82%.
Regarding `CC(C)Cc1cc(CNC(=O)C2CCC(=O)N(CCc3cccc(F)c3)C2)on1` (centres unmarked), the “hERG current change (%, negative = inhibition) at 1uM” value is -8.46%.
Then `COc1ccc(S(=O)(=O)N2CCCC(C(=O)Nc3ccc(NC(=O)c4ccccn4)cc3)C2)cc1` (centres unmarked), with 8.55%; and `COc1cc(OC)cc(C(=O)NCCNc2nc3cc(C)cc(C)c3cc2C#N)c1`, with 10.3%; and `COc1cccc(NC(=O)C(OC(=O)c2ccccc2NS(=O)(=O)c2cccs2)c2ccccc2)c1` (centres unmarked), with 10.6%.
Then `COc1ccc(OCC(=O)Nc2ccc(C(=O)Nc3ccccc3C(=O)O)cc2)cc1`, with 24.6%; and `COc1ccc(NC(=O)CCCC(=O)NCCc2ccc(OC)c(OC)c2)cc1`, with 10.2%; and `CC(=O)Cc1nsc(Nc2cccc(C)c2)n1`, with 7.99%.
Then `O=C(Nc1cccc2ccccc12)c1nn(C23CC4CC(CC(C4)C2)C3)cc1[N+](=O)[O-]`, with -1.52%.
